From US20190322765A1 (Hoffmann-La Roche, published 2019) come the findings set out here.

Test [1] has as its target T1, IL-2R βγ heterodimer on human cells (NK92 cells, NK and T cells of PBMC) (human, UniProt P14784 27-551; P31785 23-369).
T1 sequence (looked up) 1: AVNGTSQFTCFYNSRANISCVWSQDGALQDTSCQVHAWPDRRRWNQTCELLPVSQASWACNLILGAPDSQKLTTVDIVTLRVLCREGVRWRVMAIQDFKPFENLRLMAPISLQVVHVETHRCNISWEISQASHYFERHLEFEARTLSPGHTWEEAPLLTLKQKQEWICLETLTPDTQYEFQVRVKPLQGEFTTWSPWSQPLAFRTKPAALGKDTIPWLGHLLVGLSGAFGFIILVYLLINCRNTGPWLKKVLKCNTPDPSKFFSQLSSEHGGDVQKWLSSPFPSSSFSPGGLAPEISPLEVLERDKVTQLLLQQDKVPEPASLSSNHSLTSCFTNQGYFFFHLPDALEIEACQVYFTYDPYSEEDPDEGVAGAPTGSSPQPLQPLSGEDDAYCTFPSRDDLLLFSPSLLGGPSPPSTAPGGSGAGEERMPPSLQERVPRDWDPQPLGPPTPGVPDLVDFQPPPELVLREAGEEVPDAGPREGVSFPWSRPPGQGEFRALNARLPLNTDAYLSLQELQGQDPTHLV
T1 sequence (looked up) 2: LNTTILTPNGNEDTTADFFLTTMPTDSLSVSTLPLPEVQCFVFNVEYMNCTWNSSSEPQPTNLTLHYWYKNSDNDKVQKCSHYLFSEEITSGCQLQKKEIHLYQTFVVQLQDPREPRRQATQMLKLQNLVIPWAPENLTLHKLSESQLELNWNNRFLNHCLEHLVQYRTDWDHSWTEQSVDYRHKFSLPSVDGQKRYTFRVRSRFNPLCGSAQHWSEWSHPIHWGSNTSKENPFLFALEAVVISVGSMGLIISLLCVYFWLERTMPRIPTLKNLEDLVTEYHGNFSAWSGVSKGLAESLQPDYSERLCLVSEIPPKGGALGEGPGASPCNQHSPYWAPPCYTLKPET
The experiment in a line: cell-based or functional assay.

Test [2] addresses T2, human IL-2R α-subunit, monomeric, with AcTev cleavage site and Avi His tag (human).
T2 construct: also called Hu IL-2R α; CD25
T2 chain: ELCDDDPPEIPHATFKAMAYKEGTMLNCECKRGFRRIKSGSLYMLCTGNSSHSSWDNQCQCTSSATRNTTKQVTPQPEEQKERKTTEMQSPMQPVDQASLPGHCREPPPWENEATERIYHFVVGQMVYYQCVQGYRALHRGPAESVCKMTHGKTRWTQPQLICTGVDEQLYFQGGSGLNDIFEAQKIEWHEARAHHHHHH
Briefly: SPR, receptor on chip, 25°C.

Test [3] deals with T3, human IL-2R βγ heterodimer, subunit-Fc knobs-into-holes fusion (human).
T3 construct: The entries may hold a leader peptide; also called Hu IL-2R βγ; human IL2-R β knob γ hole heterodimer
Briefly: SPR, receptor on chip, construct analyte, 25°C, two state reaction fit.

Test [4] deals with T4, murine IL-2R βγ heterodimer (β knob γ hole Fc fusion) (murine, UniProt P16297 27-240; P34902 23-263).
T4 construct: also called Mu IL-2R βγ; mouse IL-2R βγ heterodimer; not shown: Fc knob/hole part
T4 sequence (looked up) 1: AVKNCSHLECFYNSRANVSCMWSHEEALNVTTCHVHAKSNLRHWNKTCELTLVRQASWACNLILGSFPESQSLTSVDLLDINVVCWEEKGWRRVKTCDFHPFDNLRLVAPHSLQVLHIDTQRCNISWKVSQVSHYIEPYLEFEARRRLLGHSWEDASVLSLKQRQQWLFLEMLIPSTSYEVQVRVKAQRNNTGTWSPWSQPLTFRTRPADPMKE
T4 sequence (looked up) 2: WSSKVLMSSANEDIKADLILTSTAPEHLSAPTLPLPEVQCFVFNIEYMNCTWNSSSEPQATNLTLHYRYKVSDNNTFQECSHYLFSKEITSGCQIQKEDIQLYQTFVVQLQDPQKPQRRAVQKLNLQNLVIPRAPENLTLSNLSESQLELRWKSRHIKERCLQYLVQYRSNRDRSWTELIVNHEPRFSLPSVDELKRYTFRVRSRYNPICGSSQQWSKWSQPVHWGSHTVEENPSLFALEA
Described as above.

Test [5] addresses T2, human IL-2R α-subunit, monomeric, with …. The experiment in a line: SPR, receptor on CM5, 25°C.
Test [6] addresses T5, murine IL-2R α-subunit, recombinant monomeric (murine, UniProt P01590 22-236, limits assumed).
T5 construct: also called Mu IL-2R α
T5 sequence (looked up): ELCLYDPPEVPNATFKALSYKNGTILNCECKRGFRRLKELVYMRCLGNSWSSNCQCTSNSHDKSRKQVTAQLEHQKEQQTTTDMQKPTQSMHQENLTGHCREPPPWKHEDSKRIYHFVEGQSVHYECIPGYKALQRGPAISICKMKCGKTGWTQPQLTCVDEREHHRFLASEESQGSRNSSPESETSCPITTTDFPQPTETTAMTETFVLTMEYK
Briefly: SPR, receptor on chip, 25°C.

The target of test [7] is T6, human FAP expressed on stably transfected HEK293 cells (human, UniProt Q12884 1-760).
T6 construct: whole, on cells
Briefly: FACS on stably transfected HEK293 cells.

Test [8] addresses T3, human IL-2R βγ heterodimer, subunit-Fc …. The experiment in a line: SPR, receptor on CM5, 25°C, apparent KD, 1:1 fit.
For test [9], the target named is T7, human FAP-His (human, UniProt Q12884 27-760).
T7 construct: also called Hu FAP; His-tagged human FAP; not shown: His tag
Briefly: SPR bridging: construct captured on immobilized human IL-2R βγ, human FAP analyte, 1:1 fit, 25°C.

For test [10], the target named is T8, human DPPIV on transfected HEK 293 cells (human, UniProt P27487 1-766).
T8 construct: whole, on cells; also called CD26
The experiment in a line: FACS on HEK 293-human DPPIV cells, with HEK mock-transfected cells, cells only and sec. antibody as controls; concentration not shown.

Test [11] concerns the target FAP on GM05389 fibroblasts. The experiment in a line: FACS on GM05389 fibroblasts, surface-bound construct detected with secondary antibody after the times shown (internalization analysis); concentration not shown.

T8 sequence (P27487 whole entry): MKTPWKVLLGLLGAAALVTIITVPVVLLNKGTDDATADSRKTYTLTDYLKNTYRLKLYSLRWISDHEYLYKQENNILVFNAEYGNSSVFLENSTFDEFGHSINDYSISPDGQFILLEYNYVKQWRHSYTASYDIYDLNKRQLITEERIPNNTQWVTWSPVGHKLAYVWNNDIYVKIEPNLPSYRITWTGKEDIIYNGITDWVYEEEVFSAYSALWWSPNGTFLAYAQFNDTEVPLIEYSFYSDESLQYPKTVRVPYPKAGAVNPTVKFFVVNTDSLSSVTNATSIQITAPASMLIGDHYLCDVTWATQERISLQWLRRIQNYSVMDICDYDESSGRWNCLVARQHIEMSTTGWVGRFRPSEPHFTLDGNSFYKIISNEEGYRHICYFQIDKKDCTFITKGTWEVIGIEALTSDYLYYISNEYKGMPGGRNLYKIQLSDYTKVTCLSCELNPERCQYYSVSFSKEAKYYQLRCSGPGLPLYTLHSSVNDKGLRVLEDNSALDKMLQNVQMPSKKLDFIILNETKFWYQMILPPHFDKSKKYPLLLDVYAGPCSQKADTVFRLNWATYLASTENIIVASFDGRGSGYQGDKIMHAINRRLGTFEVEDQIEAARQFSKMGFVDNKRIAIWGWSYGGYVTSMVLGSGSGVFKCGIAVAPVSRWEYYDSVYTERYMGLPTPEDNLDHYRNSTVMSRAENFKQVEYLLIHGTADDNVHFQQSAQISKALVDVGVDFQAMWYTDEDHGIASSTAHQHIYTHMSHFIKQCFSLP

B1: 4G8 Fab-IL-2 (triple mutant F42A/Y45A/L72G)-Fab (other)
heavy: [no letters for about 100 residues]GWLGNFDYWGQGTLVTVSSASTKGPSVFPLAPSSKSTSGGTAALGCLVKDYFPEPVTVSWNSGALTSGVHTFPAVLQSSGLYSLSSVVTVPSSSLGTQTYICNVNHKPSNTKVDKKVEPKSCDSGGGGSGGGGSGGGGAPTSSSTKKTQLQLEHLLLDLQMILNGINNYKNPKLTRMLTAKFAMPKKATELKHLQCLEEELKPLEEVLNGAQSKNFHLRPRDLISNINVIVLELKGSETTFMCEYADETATIVEFLNRWITFAQSIISTLTSGGGGSGGGGSGGGG[no letters for about 100 residues][no letters for about 120 residues]
light: EIVLTQSPGTLSLSPGERATLSCRASQSVSRSYLAWYQQKPGQAPRLLIIGASTRATGIPDRFSGSGSGTDFTLTISRLEPEDFAVYYCQQGQVIPPTFGQGTKVEIKRTVAAPSVFIFPPSDEQLKSGTASVVCLLNNFYPREAKVQWKVDNALQSGNSQESVTEQDSKDSTYSLSSTLTLSKADYEKHKVYACEVTHQGLSSPVTKSFNRGEC
notes: Fab-IL-2-Fab immunoconjugate, triple mutant; also called 4G8 IL-2 triple mutant F42A/Y45A/L72G; 4G8 Fab-IL-2 (triple mutant 42/45/72)-Fab; copies: 1 + 2
B1: the “EC50 of IFN-γ release by NK92 cells” value in test [1] was 24.4 nM. Further, the binding result in test [2] is “no binding (tested: 200 nM)”. The Kd was determined as 5.6 nM in test [3] and 68.8 nM in [4].

B2: 4G8 Fab-IL-2 qm-Fab (other)
chain: [no letters for about 100 residues]GWLGNFDYWGQGTLVTVSSASTKGPSVFPLAPSSKSTSGGTAALGCLVKDYFPEPVTVSWNSGALTSGVHTFPAVLQSSGLYSLSSVVTVPSSSLGTQTYICNVNHKPSNTKVDKKVEPKSCDSGGGGSGGGGSGGGGAPASSSTKKTQLQLEHLLLDLQMILNGINNYKNPKLTRMLTAKFAMPKKATELKHLQCLEEELKPLEEVLNGAQSKNFHLRPRDLISNINVIVLELKGSETTFMCEYADETATIVEFLNRWITFAQSIISTLTSGGGGSGGGGSGGGG[no letters for about 100 residues][no letters for about 120 residues]
light: EIVLTQSPGTLSLSPGERATLSCRASQSVSRSYLAWYQQKPGQAPRLLIIGASTRATGIPDRFSGSGSGTDFTLTISRLEPEDFAVYYCQQGQVIPPTFGQGTKVEIKRTVAAPSVFIFPPSDEQLKSGTASVVCLLNNFYPREAKVQWKVDNALQSGNSQESVTEQDSKDSTYSLSSTLTLSKADYEKHKVYACEVTHQGLSSPVTKSFNRGEC
notes: Fab-IL-2-Fab immunoconjugate against FAP with quadruple mutant IL-2; also called 4G8 IL-2 quadruple mutant T3A/F42A/Y45A/L72G; FAP 4G8 qm
For B2, the binding result is listed as “no binding (tested: 300 nM)” in [5], “no binding (tested: 200 nM)” in [6], “no binding” in test [10] and “binds” in [11]. The same molecule came in with an EC50 in test [7] of 0.7 nM. The Kd worked out at 10.4 nM in [8], 5.2 nM in [3], 56.2 nM in test [4] and 5.6 nM in test [9].
